Data published in the supplement of paper PMC7826260.
The list shows a part of the results. Cleavage of a single-stranded DNA pool by Rep nickase domains was read by sequencing (3 µM enzyme, 1 h, 37 °C); shown is the middle of each 90-letter strand. Values are log2 of uncut reads against the no-enzyme pool; uncut sequences lie near 0, cut ones below; no hit call is given. Shares of all reads are compared, so uncut sequences can rise above 0 when many others are cut.

Assays:
Assay in all cases: uncleaved DNA left, log2 of reads against the no-enzyme library (log2 ratio); higher = less cleavage (more negative = more Rep cleavage of the k-mer); sequences stand for … in CTCGTCCG…ACCGGAGA
[1] = system: T1, Rep nickase domain of Muscovy duck circovirus
T1 sequence (residues 1-111, tag not shown): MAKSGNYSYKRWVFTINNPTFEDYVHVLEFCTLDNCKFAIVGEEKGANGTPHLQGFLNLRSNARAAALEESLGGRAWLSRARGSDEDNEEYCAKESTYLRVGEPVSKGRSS
Protocol: (§1)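 A pool of 90-nt single-stranded DNAs with seven random bases just before the constant AC of the nick site (name = the seven bases) was cut by 3 µM recombinant His6-SUMO-tagged Rep nickase domain (300 nM DNA, 50 mM HEPES pH 8.0, 50 mM NaCl, 1 mM MnCl2, 1 h, 37 °C, three replicates). Uncut DNA was amplified and sequenced.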

[2] = system: T2, Rep nickase domain of banana bunchy top virus
T2 sequence (residues 1-94, tag not shown): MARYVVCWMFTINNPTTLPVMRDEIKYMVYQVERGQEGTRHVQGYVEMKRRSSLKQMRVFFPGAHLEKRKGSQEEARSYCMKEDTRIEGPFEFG
Protocol: as §1

[3] = system: T3, Rep nickase domain of cabbage leaf curl virus
T3 sequence (residues 1-116, tag not shown): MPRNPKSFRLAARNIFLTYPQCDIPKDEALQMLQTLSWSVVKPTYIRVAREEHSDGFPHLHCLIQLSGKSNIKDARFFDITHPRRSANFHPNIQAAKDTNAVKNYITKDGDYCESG
Protocol: as §1

[4] = system: T4, Rep nickase domain of chickpea chlorotic dwarf virus
T4 sequence (residues 1-124, tag not shown): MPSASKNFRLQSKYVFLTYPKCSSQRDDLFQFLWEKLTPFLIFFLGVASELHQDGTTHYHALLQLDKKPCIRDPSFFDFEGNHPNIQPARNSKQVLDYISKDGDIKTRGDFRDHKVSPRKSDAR
Protocol: as §1

[5] = system: T5, Rep nickase domain of faba bean necrotic yellows virus
T5 sequence (residues 1-98, tag not shown): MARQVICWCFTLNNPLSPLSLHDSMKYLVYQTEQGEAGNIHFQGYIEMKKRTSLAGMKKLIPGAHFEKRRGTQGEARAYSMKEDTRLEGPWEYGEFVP
Protocol: as §1

[6] = system: T6, Rep nickase domain of maize striate mosaic virus
T6 sequence (residues 1-117, tag not shown): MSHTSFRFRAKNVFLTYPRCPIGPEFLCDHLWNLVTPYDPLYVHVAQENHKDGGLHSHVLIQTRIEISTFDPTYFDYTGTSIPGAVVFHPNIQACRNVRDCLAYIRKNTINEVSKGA
Protocol: as §1

[7] = system: T7, Rep nickase domain of porcine circovirus 2
T7 sequence (residues 2-116, tag not shown): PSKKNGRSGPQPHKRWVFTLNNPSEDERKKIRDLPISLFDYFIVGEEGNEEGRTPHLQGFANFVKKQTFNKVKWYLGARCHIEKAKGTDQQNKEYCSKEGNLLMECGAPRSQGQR
Protocol: as §1

[8] = system: T8, Rep nickase domain of tomato golden mosaic virus
T8 sequence (residues 1-124, tag not shown): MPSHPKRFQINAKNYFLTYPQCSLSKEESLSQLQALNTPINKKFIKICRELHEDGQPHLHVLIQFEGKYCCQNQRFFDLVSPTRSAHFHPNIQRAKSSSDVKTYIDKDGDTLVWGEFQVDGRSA
Protocol: as §1

[9] = system: T9, Rep nickase domain of tomato yellow leaf curl virus
T9 sequence (residues 1-136, tag not shown): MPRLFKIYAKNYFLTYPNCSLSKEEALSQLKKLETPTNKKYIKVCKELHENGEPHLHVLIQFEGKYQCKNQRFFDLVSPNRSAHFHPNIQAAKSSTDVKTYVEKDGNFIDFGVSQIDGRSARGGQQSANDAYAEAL
Protocol: as §1

[10] = system: T10, Rep nickase domain of wheat dwarf virus
T10 sequence (residues 1-137, tag not shown): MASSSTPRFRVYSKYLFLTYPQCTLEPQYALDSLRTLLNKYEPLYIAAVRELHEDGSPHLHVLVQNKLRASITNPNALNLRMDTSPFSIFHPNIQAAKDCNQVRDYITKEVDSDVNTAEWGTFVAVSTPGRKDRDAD
Protocol: as §1

Sequence	uncleaved DNA left (log2) [1]	uncleaved DNA left (log2) [2]	uncleaved DNA left (log2) [3]	uncleaved DNA left (log2) [4]	uncleaved DNA left (log2) [5]	uncleaved DNA left (log2) [6]	uncleaved DNA left (log2) [7]	uncleaved DNA left (log2) [8]	uncleaved DNA left (log2) [9]	uncleaved DNA left (log2) [10]
TCCACGG	0.0109	0.101	0.546	1.55	0.0326	2.09	0.054	0.164	-0.094	-0.0501
GCTCTTT	-0.00373	-0.186	0.0566	-0.961	-0.0836	0.0917	-0.122	-0.0619	0.00335	-0.191
TAACTAG	0.0889	0.1	-0.798	-1.2	-0.0571	-1.34	0.141	0.0574	-0.0121	-0.0198
GTTTTAT	0.00431	0.0321	0.243	0.766	-0.057	1.74	0.0188	0.0506	-0.0348	0.0484
CTTTGGA	0.045	-0.0223	-0.268	-0.736	-0.0419	-0.965	0.0123	-0.0756	-0.0741	-0.0498
ACCTGCA	-0.0996	-0.0575	-0.749	-0.783	-0.0789	-1.09	0.0549	-0.128	0.029	-0.125
ATAAGTC	0.107	-0.0167	-3.33	-2.85	-0.0173	-2.25	0.011	-0.898	-0.0451	-2.71
CTCCTTT	-0.17	-0.014	-0.229	-2.15	-0.121	-0.612	-0.578	-0.29	-0.11	0.00167
GCCGAAG	0.106	-0.0298	-0.211	-0.19	0.114	-0.8	0.183	0.0799	-0.0276	-0.15
AAGGTTA	-0.0395	-0.122	-0.0382	0.405	-0.0899	0.977	-0.157	0.0375	-0.173	-0.0978
TATGTGG	0.134	-0.00516	0.0383	0.306	0.0604	-0.122	0.0978	0.027	-0.0274	0.048
GGCATCA	0.0504	0.0675	0.57	1.39	0.0665	1.9	0.179	-0.0593	0.129	0.189
TAAATTA	-0.0565	0.0182	-2.38	-2.61	-0.0418	-0.909	-0.193	-0.337	-0.00352	-1.75
CTCATTA	-0.115	0.0858	-0.0929	-1.29	-0.00341	-0.905	-0.216	-0.0498	0.0464	0.148
AGCAGAT	0.0693	0.177	0.18	0.89	0.119	1.46	0.124	0.136	-0.0305	0.102
TATATAT	0.0282	-0.431	-0.19	-1.59	0.0505	0.345	-1	-0.0101	0.158	0.0595
AGCTAAC	0.0495	0.092	-0.62	-0.55	0.0502	-0.214	-0.0434	0.0168	0.0121	0.0176
TAGTATT	-3.86	-4.48	-4.14	-3.57	-4.07	-2.73	-4.51	-3.45	-0.142	-4.02
GCCGAAT	-0.0216	0.0402	0.116	0.446	-0.097	0.604	-0.00797	0.139	-0.0592	0.0587
GTTTCGC	0.0421	-0.018	0.0974	0.353	0.0245	0.157	0.12	-0.0994	0.0358	0.0523

Sequence	uncleaved DNA left (log2) [1]	uncleaved DNA left (log2) [2]	uncleaved DNA left (log2) [3]	uncleaved DNA left (log2) [4]	uncleaved DNA left (log2) [5]	uncleaved DNA left (log2) [6]	uncleaved DNA left (log2) [7]	uncleaved DNA left (log2) [8]	uncleaved DNA left (log2) [9]	uncleaved DNA left (log2) [10]
ACGCTCA	0.0391	-0.0351	-0.231	-1.16	-0.0531	-0.521	0.0083	0.134	-0.0757	-0.0483
ATGTGGA	0.107	-0.00512	-0.0281	-0.118	-0.0191	-0.405	-0.0878	0.0932	0.00986	0.022
CGACTGT	-0.00216	-0.0276	-0.0655	0.589	-0.0643	1.64	-0.00656	0.0264	0.00126	-0.0104
CATCTGC	-0.0966	-0.0536	-0.599	-0.651	-0.00613	-1.03	0.0705	-0.168	-0.0246	-0.0591
GAGTGAT	0.112	-0.103	0.412	1.2	-0.14	1.97	-2.78	0.14	0.203	0.262
GATAGCG	0.033	-0.043	-0.718	0.684	0.00507	-0.517	-0.028	-0.00775	-0.0181	-0.105
GCGATCG	0.089	-0.00549	-0.326	-0.087	-0.0527	-0.54	0.0611	-0.0659	-0.0146	-0.0383
GCCCTTC	-0.0518	0.0264	0.155	0.45	0.000134	0.244	0.132	0.042	0.0707	0.0156
AAGACAT	-0.0172	0.11	0.796	1.95	0.02	2.1	-0.575	0.108	0.0682	0.275
AGACGAT	0.0231	0.101	0.387	0.827	-0.043	1.38	-0.0675	0.0914	-0.00877	0.0528
TTGAATG	0.0758	-0.124	-0.252	-0.0164	-0.108	-0.466	-0.0349	-0.0742	-0.111	-0.177
CAAAGGA	0.0559	-0.0512	0.0677	0.201	0.0545	-0.313	0.0841	0.0277	-0.0716	-0.00325
CCAATAA	-0.13	-0.171	-0.343	-0.453	-0.081	-0.949	-0.0868	-0.184	-0.261	-0.158
TACCCCC	-0.112	-0.134	-0.105	-1.63	-0.0822	-0.349	-1.22	-0.268	-0.0598	-0.0963
CAGTCTG	0.0271	0.167	0.158	1.04	0.0715	1.4	0.0255	0.138	0.0734	0.14
ATATTTC	0.00473	0.0871	-0.0273	-0.434	0.0339	-0.932	-0.00984	-0.127	-0.0468	-0.0491
TTGACAC	0.114	0.108	0.366	0.626	0.165	0.463	0.162	0.0756	0.103	0.249
TCTTCAT	0.0292	0.0818	0.165	-0.667	-0.0755	-0.311	-0.579	-0.0732	0.0574	0.116
TGCATCT	-0.0785	-0.062	-0.155	-1.5	-0.0687	-0.713	-0.274	-0.043	-0.0293	-0.107
ACATTCC	-0.0592	0.00612	0.183	0.563	0.0592	0.0454	0.201	-0.0284	-0.0279	0.0569

Sequence	uncleaved DNA left (log2) [1]	uncleaved DNA left (log2) [2]	uncleaved DNA left (log2) [3]	uncleaved DNA left (log2) [4]	uncleaved DNA left (log2) [5]	uncleaved DNA left (log2) [6]	uncleaved DNA left (log2) [7]	uncleaved DNA left (log2) [8]	uncleaved DNA left (log2) [9]	uncleaved DNA left (log2) [10]
GGAAAAT	0.146	0.289	0.978	2.09	0.223	2.3	0.246	0.242	0.0884	0.296
GCTCTGA	0.00604	0.0673	0.164	0.534	-0.0348	0.521	0.0286	0.144	0.0062	0.0726
TTTCAAC	0.087	0.0139	0.399	-0.955	0.0135	0.376	0.0684	0.112	0.116	0.0822
TGGGGAG	0.119	0.0893	0.103	0.565	0.0775	0.17	0.203	-0.0882	-0.0726	-0.0912
TTCCCCG	-0.133	-0.185	-0.82	-0.177	-0.00253	-0.998	-0.231	-0.0893	-0.155	-0.221
TGCGCTC	-0.0416	-0.00644	-0.0952	-0.218	-0.0146	-0.374	0.0706	-0.0534	-0.0754	-0.0521
CTCAGAT	0.0773	-0.083	0.169	1.01	0.104	1.5	0.109	-0.0225	-0.155	0.143
CCCTACT	-3.32	-0.173	-0.282	-2.24	0.163	-0.59	-3.11	0.103	0.27	-0.0167
TTTATTT	-0.179	-0.144	0.0268	-2.35	0.00597	-0.467	-1.18	-0.0739	0.0111	-0.106
CGGTGAC	-0.0233	0.0685	0.676	1.54	-0.019	1.85	0.231	-0.104	0.0883	0.0659
TAGACTG	-0.119	-0.0305	-0.0749	0.569	-0.111	1.62	-0.0538	-0.00424	-0.166	-0.0272
CTTCGGT	0.0604	-0.112	0.273	0.465	-0.0816	0.406	0.00189	-0.0473	-0.11	-0.0752
ACAGAAA	0.0483	0.0814	-0.0407	0.044	0.149	-0.6	0.212	0.201	0.0315	0.0536
TTCGACA	0.0235	-0.0229	0.142	-0.46	0.00996	0.35	-0.231	-0.029	0.0375	0.0175
GCAAGTC	-0.0473	-0.0227	-0.429	-0.365	-0.153	-0.469	0.000897	-0.0662	-0.0918	-0.132
GTAAGTC	0.0663	0.105	-2.2	-2.06	-0.00545	0.953	0.131	-0.0997	0.124	-0.295
TAGTAAG	0.0572	0.00928	-0.814	-0.683	0.0444	-1.23	-0.158	-0.0605	-0.00926	-0.103
GTCGTCT	0.0694	-0.0341	0.299	0.534	-0.109	1.44	-0.0504	-0.0155	-0.0054	-0.0679
CTACTGG	0.0478	0.109	-0.0456	-0.0442	0.0117	-0.00147	0.174	0.0355	-0.0468	0.0882
GCTGATG	0.0847	-0.0543	-0.132	-0.0504	0.0942	-0.304	0.142	-0.0804	0.112	-0.0602
